In publication PMC6919601, “Identification of Plasmodium dipeptidyl aminopeptidase allosteric inhibitors by high throughput screening” (PLoS ONE, 2019):
Among all 110,000 compounds or so, about 230 (0.21%) showed an effect of 50% or more. The list shows a part of the results.

Each compound was assayed against DPAP1 (Plasmodium falciparum, UniProt Q8IIJ9) (assay: primary screen, percent inhibition; read by cleavage of a fluorogenic dipeptide substrate; higher = more effect of the substance).
Design: species or system P. falciparum D10 trophozoite lysates; single well
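Further: 30 min substrate incubation versus DMSO and 10 µM JCP410 controls.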

Chain of DPAP1 (Q8IIJ9 whole entry, looked up): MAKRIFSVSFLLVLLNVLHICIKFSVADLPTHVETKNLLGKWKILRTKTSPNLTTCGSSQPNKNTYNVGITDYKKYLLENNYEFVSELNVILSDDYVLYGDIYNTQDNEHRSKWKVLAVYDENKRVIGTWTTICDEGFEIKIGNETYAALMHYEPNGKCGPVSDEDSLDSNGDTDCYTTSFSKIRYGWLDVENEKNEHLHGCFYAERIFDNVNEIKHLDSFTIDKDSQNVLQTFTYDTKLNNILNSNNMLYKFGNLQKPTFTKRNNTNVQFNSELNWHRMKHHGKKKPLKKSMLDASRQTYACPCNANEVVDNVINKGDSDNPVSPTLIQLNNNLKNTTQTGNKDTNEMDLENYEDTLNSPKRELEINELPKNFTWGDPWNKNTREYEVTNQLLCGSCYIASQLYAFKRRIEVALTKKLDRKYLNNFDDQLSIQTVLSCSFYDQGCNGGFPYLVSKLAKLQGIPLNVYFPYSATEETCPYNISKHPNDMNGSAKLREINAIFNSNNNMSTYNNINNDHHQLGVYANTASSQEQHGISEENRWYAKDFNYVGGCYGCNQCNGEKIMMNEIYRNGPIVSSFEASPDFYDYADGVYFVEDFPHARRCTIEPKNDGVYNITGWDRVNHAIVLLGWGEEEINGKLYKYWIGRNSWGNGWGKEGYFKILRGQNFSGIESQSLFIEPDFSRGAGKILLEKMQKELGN

Point of comparison: `CC(=O)Nc1ccc2[nH]c(-c3cccn3C)nc2c1`, “% Inhibition @ 10 uM” value -8.36%. Against it:
- COc1cc(CN2CCCC(O)C2)cc(Br)c1O (centres unmarked) — higher, 3.01%
- CN(CC(=O)NCc1cccnc1)S(=O)(=O)c1ccc2[nH]c3c(c2c1)CCCC3 — higher, -7.35%
- CC1CCCCC1Nc1nc2ccc(Cl)cc2n2cnnc12 (centres unmarked) — higher, 5.84%
- CCOc1cc(C2c3c(oc4ccccc4c3=O)C(=O)N2c2ccc(C)cn2)ccc1O (centres unmarked) — higher, 3.72%
- CCC(C)NC(=O)C1c2cc(OC)c(OC)cc2C(=O)N(C)C1c1ccc(OC)c(OC)c1 (centres unmarked) — higher, 6.57%
- CCOCc1c(C)cc(C)c(/C=C(\C#N)C(=O)OCC)c1C — higher, 0.968%
- Cc1ccc2nc(N(CCCN(C)C)C(=O)Cc3ccccc3)sc2c1 — higher, 0.233%
- CCOc1ccc(C2CSc3nc4ccccc4n3C2=O)cc1 (centres unmarked) — higher, 0.275%
- FC(F)(F)c1cccc(N2CCN(Cc3ccc4c(c3)OCO4)CC2)c1 — higher, 3.1%
- CN(C)c1ccc(C2CC(=O)NC3=C2C(=O)CC(C)(C)C3)cc1 (centres unmarked) — higher, -6.88%
- COc1ccc(CN2CCN(Cc3ccco3)CC2)cc1Br — higher, 20.2%
- CCc1ccc2oc(-c3cccc(NC(C)=O)c3)nc2c1 — higher, -1.96%
- Cc1c(C(N)=O)c(N)c(C(=O)c2ccccc2)n1-c1ccccc1 — higher, -2.42%
- COc1cc(CNC23CC4CC(CC(C4)C2)C3)ccc1OCC(=O)NC(C)(C)C — higher, -1.43%
- O=C(NCCOC12CC3CC(CC(C3)C1)C2)c1cc2c(s1)-c1ccccc1S(=O)(=O)C2 — higher, -4.24%
- CCC(=O)Nc1sc2c(c1C#N)CCCCC2 — higher, -4.43%
- Oc1cc(-c2ccccc2Cl)c2c(n1)CCC2 — higher, -0.256%
- Cc1nn(C(=O)COc2ccc(Cl)cc2Cl)c(N)c1-c1ccccc1 — higher, 4.32%
- COC(=O)CCCc1c2ccccc2nc2ccccc12 — higher, 0.989%
- CCc1ccc(C2C3=C(O)CCCC3=NC(C)=C2C(=O)OC(C)C)cc1 (centres unmarked) — higher, 4.1%
- C=CCNC(=O)CN(c1ccc(C23C[C@H]4C[C@@H](C2)C[C@@H](C3)C4)cc1)S(C)(=O)=O — higher, 1.19%
- Cc1ccccc1/N=C1/SCC(=O)N1Cc1ccccc1 — higher, -7.15%
- CC(=O)Nc1c(C)ccc(C(=O)O)c1[N+](=O)[O-] — higher, -3.8%
- O=C(CN1Cc2ccccc2C1=O)N1CCN(C(=O)c2ccco2)CC1 — higher, -4.38%
- COc1cc2nc(S)nc(NCCc3c[nH]c4ccccc34)c2cc1OC — higher, 4.01%
- O=C1c2ccccc2NC(c2ccccc2F)N1c1ccccc1 (centres unmarked) — higher, 4.98%
- CC(C)c1nnc(NC(=O)c2nc(SCc3ccccc3F)ncc2Cl)s1 — higher, -0.946%
- CCOc1ccccc1NC(=O)C1CC1(c1ccccc1)c1ccccc1 (centres unmarked) — higher, -5.36%
- CC1CC(C)CN(C(=O)Cn2c3ccccc3c3cnnc(O)c32)C1 (centres unmarked) — higher, -0.281%
- N#Cc1ccccc1OCC(=O)O — higher, 3.29%
- O=C(O)c1ccccc1OCC(O)Cn1cnc2ccccc21 (centres unmarked) — higher, -1.84%
- CCCCc1c(O)nc2c(C)cccc2c1C — higher, -4.58%
- Cc1ccc(C(=O)Nc2cc(C(F)(F)F)ccc2F)s1 — higher, 4.77%
- CC1(C)C(C=C(Cl)Cl)C1C(=O)NCc1ccc2c(c1)OCO2 (centres unmarked) — higher, 0.983%
- Cc1nnc2ccc(N3CCN(C(=O)c4ccccc4)CC3)nn12 — higher, -3.08%
- COc1ccc(S(=O)(=O)N2CCN(Cc3ccc4c(c3)OCO4)CC2)c2ccccc12 — higher, -1.84%
- CCOc1cc(C(=O)Nc2nn3c(-c4ccco4)nnc3s2)cc(OCC)c1OCC — higher, 1.39%
- COc1cccc2c1Oc1ncccc1NC2 — higher, 1.63%
- COc1ccc(C(=O)c2cnc3cc4c(cc3c2S(=O)(=O)c2ccc(F)cc2)OCO4)cc1 — lower, -9.67%
- COc1ccc(NC(=O)CCC(=O)c2ccc(C)c(C)c2)cc1 — higher, -5.26%
- NC(=O)c1cnn2c(C(F)(F)F)cc(-c3cccs3)nc12 — higher, -0.711%
- CCOc1ccc(C2C=C(c3ccc(C(C)C)cc3)Nc3ncnn32)cc1 (centres unmarked) — higher, -1.48%
- COc1ccc(-c2cc(-c3ccc(C)cc3)nc(OC(C)C)n2)cc1 — higher, 0.219%
- COc1ccc(-c2ccc(CCC(=O)O)n2-c2ccc(C(N)=O)cc2)cc1 — higher, 2.21%
- CN(C)CC1CSCCC1(O)c1ccccc1Cl (centres unmarked) — higher, -6.37%
- COc1cc(C2SC(NC(C)=O)=NN2C(C)=O)cc(OC)c1OC (centres unmarked) — higher, -2.24%
- CCCCN(CCNC(=O)NCc1noc2ccccc12)Cc1ccco1 — higher, -1.11%
- O=C(O)CCC(=O)Nc1nc(-c2ccc(Cl)c(Cl)c2)cs1 — higher, -3.45%
- CC(=O)N/C(=C\c1c[nH]c2ccccc12)C(=O)O — higher, 4.93%
- Cc1sc2ncn(CC(=O)NCC(=O)N3CCC4(CC3)OCCO4)c(=O)c2c1C — higher, -7.66%
- CC1(C)NC(=O)N(Cc2ccccc2)C1=O — higher, -5.14%
- O=C1NC(=O)c2cc(N3C(=O)c4ccc(Oc5ccc(Br)cc5)cc4C3=O)ccc21 — higher, 0.755%
- Cn1c2c(c(=O)n(C)c1=O)C(NC(=O)C1CCCCC1)(C(F)(F)F)C(=O)N2 (centres unmarked) — higher, -0.99%
- O=c1cccc2n1C[C@H]1C[C@@H]2CN(Cc2cccc(O)c2)C1 — higher, 1.54%
- O=C(Nc1ccc2ccccc2c1)c1cnccn1 — higher, -2.91%
- O=C(Nc1ccccc1C(=O)NCc1ccccc1)c1ccccc1Cl — higher, 2.55%
- Cc1c(CNCc2ccc3c(c2)OCO3)c(C(=O)O)c(C)n1Cc1ccc(F)cc1 — higher, -3.67%
- CCC(C)c1ccc(NC(=O)c2cnn(C)c2)cc1 (centres unmarked) — higher, 4.05%
- CC(C)(C)c1ccc(C(=O)Nc2cccc(O)c2)cc1 — higher, 1.39%
- C=CCN1C(=O)/C(=C/c2cc3ccccc3[nH]2)C(=O)NC1=S — higher, 0.962%
- O=C1c2cccnc2C(=O)N1CCc1ccc(S(=O)(=O)NC2CCCc3ccccc32)cc1 (centres unmarked) — higher, -4.27%
- N#CC1=C2SCN(Cc3ccccc3)CN2C(=O)CC1c1cccs1 (centres unmarked) — higher, 40.5%
- CCOc1ccc2nc(NC(=O)CN(C)S(=O)(=O)c3c[nH]cn3)sc2c1 — higher, 1.63%
- CCOC(=O)c1cnc2ccc(OC)cc2c1Cl — higher, -0.357%
- Cc1cccc(OCC(=O)Nc2cccnc2Cl)c1 — higher, -1.52%
- N#Cc1c(NCc2ccccc2)ccnc1S — higher, 16.3%
- O=C1OC(c2ccccc2F)=N/C1=C\c1ccc2c(c1)OCO2 — higher, -7.96%
- Cc1ccc(Cl)cc1N(CC(=O)NC(C)c1ccccc1)S(C)(=O)=O (centres unmarked) — higher, -0.796%
- Cc1oc(-c2ccc3c(c2)OCCO3)cc1C(=O)O — higher, -0.403%
- OCCN(Cc1ccccc1)Cc1ccc(F)c(Br)c1 — higher, -7.17%
- COc1ccc(C2=N/C(=C\c3ccccc3C(F)(F)F)C(=O)O2)c(Cl)c1 — higher, -0.597%
- Cc1ccc(S(=O)(=O)N2CCC(c3c(C)n(CC(=O)N4CCCC4)c4ccccc34)CC2)c(C)c1 — higher, 2.34%
- C=CCNC(=O)/C(C#N)=C/c1c(Oc2ccc(CC)cc2)nc2ccccn2c1=O — higher, -4%
- c1csc(-c2nn3c(-c4ccncc4)nnc3s2)c1 — higher, -4.02%
- N#CC1=C(N)OC2=C(C(=O)CC(c3ccccc3)C2)C1c1cc(Br)cs1 (centres unmarked) — higher, 1.96%
- CCOC(=O)c1cnc(Nc2nc3ccccc3o2)nc1CSc1ccc(Cl)cc1 — higher, 4.94%
- CCc1c(C)sc(NC(=O)c2c(-c3ccccc3Cl)noc2C)c1C(N)=O — higher, -7.23%
- CCCCN(C)Cc1c(O)ccc2ccccc12 — higher, 4.88%
- O=C(CSc1nc(O)c(Cc2ccccc2F)c(O)n1)N1CCCCCC1 — higher, -5.28%
- COCCNC(=O)/C(C#N)=C/c1c(Oc2ccc(Br)cc2)nc2ccccn2c1=O — higher, 7.65%
- COc1ccc(NC(=O)/C(=C/c2ccc(Cl)cc2)NC(=O)c2ccco2)cc1 — higher, -7.09%
- C#CCN1C(=O)S/C(=C\c2cc3c(cc2Cl)OCO3)C1=O — higher, 5.17%
- CCOc1ccc(C(=O)C2=C(O)C(=O)N(CCCN3CCOCC3)C2c2ccc(F)cc2)c(C)c1 (centres unmarked) — higher, 1.31%
- Cc1oc(-c2cccc(Cl)c2)nc1CS(=O)CC(=O)NCc1ccc(Cl)cc1 (centres unmarked) — higher, 0.689%
- COc1ccc(S(=O)(=O)N(C)CCc2ccccn2)cc1 — higher, -3.13%
- Cc1cc(C)c(S(=O)(=O)Nc2noc3ccccc23)c(C)c1 — higher, 2.19%
- Cc1ccc(CNC(=O)C2CCN(C(=O)c3ccc(-n4c(C)cc5ccccc54)s3)CC2)o1 — higher, -1.92%
- CCOc1ccc(NC(=O)NC(C(F)(F)F)C(F)(F)F)cc1 — higher, -2.44%
- CCS(=O)(=O)c1cccc2c(S(=O)(=O)CC)cccc12 — higher, -3.66%
- CNC(=O)C1=C(C)N=C(S)NC1c1ccccc1Cl (centres unmarked) — higher, 5.3%
- Cc1cc(C(=O)N2CCN(C3CCCCC3)CC2)c2c(C)nn(-c3ccccc3Cl)c2n1 — higher, -3.1%
- O=C(NCC1CCCO1)c1ccccc1Cl (centres unmarked) — higher, -1.04%
- Cc1cc2ccccc2n1CCNC(=O)c1ccc(C(C)(C)C)cc1 — higher, -2.87%
- Cc1nnc(NC(=O)CSc2nc(-c3ccc(F)cc3)nc3c2c(=O)n(C)c(=O)n3C)s1 — higher, -1.08%
- Cc1c(C(=O)NCc2ccccn2)sc2nc3n(c(=O)c12)CCCCC3 — higher, -3.18%
- O=C(CCc1ccccc1)N1CCN(c2ccc(Cl)cc2)CC1 — higher, -0.436%
- C(=C\c1ccccc1)/CN1CCN(C2CCSC2)CC1 (centres unmarked) — higher, -1.81%
- CCSC1=NSC2=NC(=O)/C(=C\c3ccc(OC)cc3)C(=N)N12 — higher, 3.33%
- CC1=C(C(=O)Nc2ccccc2F)C(c2ccccc2C)C2=C(O)CCCC2=N1 (centres unmarked) — higher, -7.3%
- COc1ccccc1NC(=O)C1=C(C)Nc2nc(CCCO)nn2C1c1ccc(Cl)c(Cl)c1 (centres unmarked) — higher, 4.76%
